The results in this text go back to the RNAGym collection of RNA variant scans (doi:10.1093/nar/gkz1192).

Read counts are not given, so values of variants with three or more changes are uncertain.

B1: CPEB3 Ribozyme (parent)
chain: UAACAGGGGGCCACAGCAGAAGCGUUCACGUCGCAGCCCCUGUCAGAUUCUGGUGAAUCUGCGAAUUCUGCUGUAUAUCUC

The variants in the data set derive from B1. Kind of data set: self-cleavage, relative activity (ratio to wild type); higher = more cleavage; in vitro, sequencing. In short, it runs like this:
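For each CPEB3 ribozyme variant, relative activity is its cleaved/total read fraction divided by the unmutated ribozyme's. Barcoded error-prone PCR libraries were transcribed by T7 RNA polymerase (5 hours, 37°C) and held in DNase I for 15 min before an EDTA stop, with cleavage occurring throughout. Template-switching reverse transcription and Illumina sequencing were used to read the RNAs. A 5-read minimum applied, and results are the mean of three batches.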
U25A U48A A56G U60C: the self-cleavage was 0.45.

On to U25A U60C A64G, for which the self-cleavage stood at 0.15.

For the variant U25C A35U G36U U43C G53A, the self-cleavage was 0.07.

As to U25A A45U U72G A77G, the self-cleavage amounted to 0.08.

U25A U26A U31G U66G A75U: the self-cleavage came to 0.17.

As to U25C A35G A47G A75U U80C, the self-cleavage turned out to be 0.26.

For U25A A28G U41G U78C, the self-cleavage was 0.2.

For U25C A28U U58A, the self-cleavage turned out to be 0.53.

For the variant U25A U51C A65G U74C U76A, the self-cleavage was 0.16.

As for U25C A28G A56G A57G U67C, the self-cleavage stood at 0.12.

In the case of U25C A28G G53U, the self-cleavage turned out to be 0.18.

For the variant U25C C27A A35G U60C U80G, the self-cleavage turned out to be 0.05.

As for U25A C79U U80G, the self-cleavage came out at 0.16.

As for G24A U69A U76C, the self-cleavage was 0.07.

As to U25C A35G A47G U69A, the self-cleavage was 0.17.

For U25C A45C U60C A65G U74C, the self-cleavage was 0.14.

With U25A C50A U66C, the self-cleavage was found to be 0.14.

On to U25A U43C U69C, for which the self-cleavage was found to be 0.11.

Take U25A U72A A75G: the self-cleavage was 0.06.

As for G24U A45G A57G U69C, the self-cleavage was 0.06.

For the variant U25A C32U U78G, the self-cleavage is 0.06.

On to G24C G36U U43C, for which the self-cleavage was determined as 0.18.

As to U25A A45G A56G U78C, the self-cleavage stood at 0.05.

With U25C C27U U41G A47G U72A, the self-cleavage was 0.05.

G24U C50G A64G: the self-cleavage worked out at 0.15.

Turning to G24U A45G A75G, the self-cleavage stood at 0.39.

Regarding U25C A28U U41C, the self-cleavage is 0.13.

Consider U25C A28U U41A, for which the self-cleavage turned out to be 0.19.

Regarding U25C A28C U69C, the self-cleavage came to 0.32.

With G24U C29A U31A U43C A57G A64G U78C, the self-cleavage worked out at 0.04.

As for U25C A28G A35G U41A U49C U69C, the self-cleavage stood at 0.02.

For U25A U26C U43C U78A U80A, the self-cleavage stood at 0.07.

Take U25A U31C A56U A64G: the self-cleavage is 0.17.

U25C A47U U60A: the self-cleavage came out at 0.15.

For the variant U25A C34G U43C C62G A65G U72A, the self-cleavage was found to be 0.03.

In the case of U25A A47G A57U, the self-cleavage is 0.15.

On to U25C A45G U60C, for which the self-cleavage stood at 0.27.

U25C C27U U60C: the self-cleavage turned out to be 0.23.

Take U25C A35U U72A: the self-cleavage was 0.09.

Regarding U25A U26C A56U, the self-cleavage came out at 0.41.

With U25C A35G U78C, the self-cleavage came out at 0.3.

With U25C A45G G70A, the self-cleavage was found to be 0.2.

As for U25A U49C A57G U67C, the self-cleavage came to 0.34.

Regarding U25A U51A U54A A57G A65G U72A, the self-cleavage came to 0.07.

With U25A G63A U67A U69C, the self-cleavage was determined as 0.06.

Regarding U25A A64G A75G, the self-cleavage worked out at 0.36.

Take U25A A35C U48C U66A: the self-cleavage is 0.16.

As to U25A U31C A56G A64G C71A, the self-cleavage stood at 0.32.

Regarding U25C C32A C38U U69C, the self-cleavage worked out at 0.06.

Take U25C A35U U41C A56U U69C: the self-cleavage was determined as 0.06.

On to U25C A45U U60G A64G, for which the self-cleavage was 0.08.

Regarding U25A G30A U41C U43C G52A, the self-cleavage was 0.16.

Consider U25A U43A U48C, for which the self-cleavage amounted to 0.37.

In the case of U25C A35G A57U A77G, the self-cleavage is 0.14.

As to G24C U43A A56G U67A U80C, the self-cleavage stood at 0.07.

For the variant U25C A28U U41C U43C U58C A65G, the self-cleavage amounted to 0.05.

As to U25C A56G U58A, the self-cleavage amounted to 0.18.

As for U25C A35U U76C, the self-cleavage stood at 0.16.

Consider G24U G30A U49C A56G U58A A65U, for which the self-cleavage was 0.06.

For G24C U31C U41A A65G U80C, the self-cleavage is 0.22.

On to G24U U25A A45U A57G, for which the self-cleavage amounted to 0.08.

Regarding U25A G63A A64G A65G U78G, the self-cleavage amounted to 0.06.

Take U25A U31A A57G: the self-cleavage is 0.16.

Consider G24U U25A U43C, for which the self-cleavage was found to be 0.18.

Regarding U25A A47C U58G, the self-cleavage was 0.2.

Take U25A C32U A56G U60A U72C: the self-cleavage is 0.13.

Consider U25A A45G U58A U69C G73A U80C, for which the self-cleavage came out at 0.14.

For U25C C27A U66C, the self-cleavage was determined as 0.19.

For U25A U31A G52A U54C, the self-cleavage turned out to be 0.15.

With U25A U60C U72A A75G, the self-cleavage came to 0.13.

In the case of U25C A35U A56G A57C, the self-cleavage is 0.08.

For U25C A45G G63A, the self-cleavage was 0.61.

As for U25C A28G U41A U66C, the self-cleavage stood at 0.07.

On to U25A U43A A45G C79A, for which the self-cleavage was determined as 0.31.

Consider U25A A35G U48C U80C, for which the self-cleavage is 0.24.

For the variant U25C A47U U51A U72A, the self-cleavage was determined as 0.16.

For G24U U25A U80C, the self-cleavage amounted to 0.39.

Take U25C A65G U69A: the self-cleavage is 0.08.

Regarding U25C A28U C37A U43C U54A A57G, the self-cleavage was found to be 0.08.

For the variant G24U U26C A35G, the self-cleavage is 0.25.

For G24C U25A A56G U69A U74C A75G, the self-cleavage turned out to be 0.16.

As for U25C C27A A64G, the self-cleavage stood at 0.42.

As for U25A A28U G61C, the self-cleavage is 0.16.

For U25A G36A U41C, the self-cleavage was 0.13.
